Patent publication US20250122271A1, “ANTI-DKK1 ANTIBODY, PHARMACEUTICAL COMPOSITION THEREOF, AND USE THEREOF” (SHANGHAI JUNSHI BIOSCIENCES CO., LTD., priority 2022, published 2025)

Target: T1, human DKK1 (Homo sapiens, UniProt O94907)
T1 construct: purchased Sino Biological 10170-H08H
T1 sequence (O94907 32-266): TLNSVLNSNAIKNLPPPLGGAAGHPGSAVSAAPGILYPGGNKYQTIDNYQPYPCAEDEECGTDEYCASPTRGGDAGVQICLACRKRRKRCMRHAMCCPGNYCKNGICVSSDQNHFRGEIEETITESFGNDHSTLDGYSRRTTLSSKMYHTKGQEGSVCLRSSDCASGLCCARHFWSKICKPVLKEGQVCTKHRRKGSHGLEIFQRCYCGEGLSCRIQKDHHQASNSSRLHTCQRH
Assay: Luciferase reporter gene assay in 293 TOP cells with Wnt3a and human DKK1 (recovery of Wnt signaling)
Type: cell-based
Conditions: humanized antibodies
Experimental: The cellular biological activity of the DKK1 antibodies was tested using target cells 293 TOP overexpressing LRP5/6 and comprising the luciferase reporter system and recombinant Wnt3a (R&D systems, cat #5036-WN), as well as human DKK1 (Sino Biological, cat #10170-H08H) protein. The target cells 293 TOP were placed into a 96-well flat-bottomed white plate (corning, cat #3917) at 50,000 cells per well for incubation overnight. The supernatant was then discarded, and the gradiently diluted antibodies to be tested were each added for pre-incubation at 37° C. for 0.5 h. After the pre-incubation was completed, the diluted Wnt3a (R&D systems, cat #5036-WN) and human DKK1 protein, at working concentrations of 0.05 μg/mL and 0.1 μg/mL, respectively, were added into the mixture containing the cells and antibody for co-incubation at 37° C. for 6-8 h. Finally, the luciferase substrate One-Lite (Vazyme, cat #DD1203-03-AB) was added and the chemiluminescence values of the hybridoma antibodies were measured. […]
The target cells 293 TOP were placed into a 96-well flat-bottomed white plate (corning, cat #3917) at 50,000 cells per well for incubation overnight. […] Finally, the luciferase substrate One-Lite (Vazyme, cat #DD1203-03-AB) was added and the chemiluminescence values of the chimeric antibodies were measured (FIGS. 5A-5C). […]

B1: hu2: humanized antibody, VH/VL SEQ ID NO: 49/55, HC/LC SEQ ID NO: 79/85 (antibody)
heavy: EVQLLQSAAEVKRPGESLRISCKTSGYTFTEYTMHWVRQMPGKELEWMGVIDPSNGDTSYNQKFKGHVTISADKSSSTAYLQWSSLKASDAAMYYCSSTTGPWFASWGQGTLVTVSSASTKGPSVFPLAPCSRSTSESTAALGCLVKDYFPEPVTVSWNSGALTSGVHTFPAVLQSSGLYSLSSVVTVPSSSLGTKTYTCNVDHKPSNTKVDKRV[letters of human IgG4 Fc with S228P (EU numbers) omitted]
light: DIQMTQSPSSLSASVGDRVTITCRASQDISNYLNWYQQKPGKAPKLLIYYKSRLHSGVPSRFSGSGSGTDFTLTISSLQPEDFATYYCQQVHTLPPTFGQGTKLEIKRTVAAPSVFIFPPSDEQLKSGTASVVCLLNNFYPREAKVQWKVDNALQSGNSQESVTEQDSKDSTYSLSSTLTLSKADYEKHKVYACEVTHQGLSSPVTKSFNRGEC
activity in the screening at cellular level: superior activity
